From the supplement of paper PMC12462457
Structures can show the parent of a compound that is named as a salt. ± gives the standard deviation of the averaged measurements. The list shows a part of the results.

Test system: OVCAR8
Test: cell count relative to DMSO vehicle (fold change); OVCAR8 is a high-grade serous ovarian cancer line and CX-5461 an RNA polymerase I inhibitor; higher = more surviving senescent cells (less killing)
Settings: senescence inducer: CX-5461 3 µM 48 h, then 6 d recovery (CX senescent), exposure time 24 h

Row | Structure (SMILES) | cell count (compound dose 1 µM) | cell count (compound dose 5 µM)
1 | CCN1CCN(C(=O)Cc2ccc(Nc3ncc(F)c(Nc4ccc(C(=O)Nc5ccccc5Cl)cc4)n3)cc2)CC1 [Aurora A Inhibitor I] | 1.01 ± 0.14 | 0.913 ± 0.11
2 | CO[C@H]1C[C@H](O[C@H]2CC[C@]3(C)[C@H]4CC[C@]5(C)[C@@H](C6=CC(=O)OC6)CC[C@]5(O)[C@@H]4CC[C@]3(O)C2)O[C@H](C)[C@H]1O[C@@H]1O[C@H](CO)[C@@H](O)[C@H](O)[C@H]1O [Periplocin] | 0.223 ± 0.19 | 0.015 ± 0.0028
3 | CN(C)C(=O)OC1=C(c2cccc3ccccc23)Oc2ccccc2-n2cccc21 | 1.04 ± 0.11 | 0.957 ± 0.25
4 | CCOC(=O)[C@H](Cc1ccc(F)cc1)NC(=O)[C@@H](N)Cc1ccc(N(CCCl)CCCl)cc1 [Melflufen (hydrochloride)] | 0.889 ± 0.28 | 0.117 ± 0.0078
5 | CC1=CC(=O)[C@@H](O)[C@]2(C)[C@H]3[C@@H](O)[C@H](O)[C@]4(C)OC[C@@]35[C@@H](C[C@@H]12)OC(=O)[C@H](O)[C@]54O [Bruceine D] | 0.995 ± 0.1 | 0.96 ± 0.069
6 | O=C(O)c1nn(Cc2ccc(Cl)cc2Cl)c2ccccc12 | 1.21 ± 0.081 | 1.22 ± 0.04
7 | C[S+]([O-])/C=C/CCN=C=S (stereo not given) [Sulforaphene] | 1.2 ± 0.23 | 1.05 ± 0.15
8 | S=P1(c2ccccc2)Nc2ccccc2O1 (stereo not given) | 1.05 ± 0.22 | 1.16 ± 0.2
9 | COc1cc2c(c(OC)c1OC)-c1ccc(OC)c(=O)cc1[C@@H](NC(C)=O)CC2 [Colchicine] | 1.24 ± 0.0057 | 1.09 ± 0.18
10 | O=C(O)CC[N+](=O)[O-] [3-Nitropropanoic acid] | 1.14 ± 0.051 | 1.09 ± 0.25
11 | CC(C)=CCCC(C)(O)C1CCC2(C)C1C(O)CC1C3(C)CCC(OC4OC(CO)C(O)C(O)C4O)C(C)(C)C3CCC12C [20(R)-Ginsenoside Rh2] | 1.113 ± 0.011 | 1.17 ± 0.093
12 | O=C(CBr)N1CC([N+](=O)[O-])([N+](=O)[O-])C1 | 1.09 ± 0.16 | 1.13 ± 0.24
13 | S=C=NCc1ccccc1 | 0.944 ± 0.063 | 0.992 ± 0.28
14 | CC[C@@H](C(=O)[C@@H](C)[C@@H](O)[C@H](C)[C@@H]1O[C@@H]([C@@H](CC)C(=O)O)CC[C@@H]1C)[C@H]1O[C@]2(C=C[C@@H](O)[C@]3(CC[C@@](C)([C@H]4CC[C@](O)(CC)[C@H](C)O4)O3)O2)[C@H](C)C[C@@H]1C [Salinomycin] | 1.03 ± 0.11 | 0.988 ± 0.077
15 | CC[C@@H](C(=O)[C@@H](C)[C@@H](O)[C@H](C)[C@@H]1O[C@@H]([C@@H](CC)C(=O)O)CC[C@@H]1C)[C@H]1O[C@]2(C=C[C@@H](O)[C@]3(CC[C@@](C)([C@H]4CC[C@](O)(CC)[C@H](C)O4)O3)O2)[C@H](C)C[C@@H]1C [Salinomycin (sodium salt)] | 1.16 ± 0.13 | 1.03 ± 0.021
16 | OC(Cc1ccncc1)C(Cl)(Cl)Cl (stereo not given) | 1.13 ± 0.18 | 1.13 ± 0.2
17 | Cn1cc(C2=C(c3cn(C4CCN(Cc5ccccn5)CC4)c4ccccc34)C(=O)NC2=O)c2ccccc21 | 1.12 ± 0.13 | 1.18 ± 0.076
18 | C[C@@H]1CC[C@@]2(OC1)O[C@H]1C[C@H]3[C@@H]4CC=C5C[C@@H](O[C@@H]6O[C@H](CO)[C@@H](O[C@@H]7O[C@@H](C)[C@H](O)[C@@H](O)[C@H]7O)[C@H](O)[C@H]6O[C@@H]6O[C@@H](C)[C@H](O)[C@@H](O)[C@H]6O)CC[C@]5(C)[C@H]4CC[C@]3(C)[C@H]1[C@@H]2C [Dioscin] | 1.09 ± 0.15 | 0.415 ± 0.14

Row | Structure (SMILES) | cell count (compound dose 1 µM) | cell count (compound dose 5 µM)
19 | O=C1C=CC[C@@H]2[C@H]3CCCN4CCC[C@@H](CN12)[C@@H]34 [Sophocarpine] | 1.07 ± 0.25 | 1.05 ± 0.17
20 | CN1Cc2c(ccc3c2OCO3)[C@@H]2[C@H]1c1cc3c(cc1C[C@@H]2O)OCO3 [Chelidonine] | 1.25 ± 0.29 | 1.36 ± 0.03
21 | COc1cc2c3cc1Oc1c(OC)c(OC)cc4c1[C@@H](Cc1cccc(c1)Oc1ccc(c(O)c1)C[C@@H]3N(C)CC2)N(C)CC4 | 1.13 ± 0.017 | 1.16 ± 0.037
22 | O=C(O)C(=O)c1cn(Cc2ccccc2)c2ccc(-c3ccc(OC(F)(F)F)cc3)cc12 [Tiplaxtinin] | 1.22 ± 0.31 | 1.19 ± 0.36
23 | CC(C)=CCC[C@](C)(O)[C@H]1CC[C@]2(C)[C@@H]1[C@H](O)C[C@@H]1[C@@]3(C)CC[C@H](O[C@@H]4O[C@H](CO)[C@@H](O)[C@H](O)[C@H]4O)C(C)(C)[C@@H]3CC[C@]12C [Ginsenoside Rh2] | 1.04 ± 0.1 | 0.914 ± 0.22
24 | CC(C)[C@]12O[C@H]1[C@@H]1O[C@]13[C@]1(O[C@H]1C[C@H]1C4=C(CC[C@@]13C)C(=O)OC4)[C@@H]2O [Triptolide] | 0.94 ± 0.16 | 0.895 ± 0.021
25 | CC(C)(C)c1cc(C=C(C#N)C#N)cc(Br)c1O | 1.07 ± 0.047 | 1.08 ± 0.059
26 | O=C(c1ccccc1O)c1[nH]c(Cl)c(Cl)c1-n1c(C(=O)c2ccccc2O)cc(Cl)c1Cl [Maritoclax] | 1.24 ± 0.44 | 1.23 ± 0.31
27 | CC(=O)O[C@H]1C[C@]2(O)[C@@H]3CC[C@@H]4C[C@@H](O)CC[C@]4(C)[C@H]3CC[C@]2(C)[C@H]1c1ccc(=O)oc1 [Bufotalin] | 0.024 ± 0.025 | 0.0195 ± 0.0064
28 | Cn1c(CCCC(=O)O)nc2cc(N(CCCl)CCCl)ccc21 [Bendamustine (hydrochloride)] | 1.16 ± 0.32 | 1.16 ± 0.24
29 | COc1cc(C(=O)O[C@H]2[C@@H]3C=CO[C@@H](O[C@@H]4O[C@H](CO)[C@@H](O)[C@H](O)[C@H]4O)[C@@H]3[C@@]3(CO)O[C@@H]23)ccc1O [Picroside II] | 1.06 ± 0.03 | 1.11 ± 0.043
30 | Cc1sc2c(c1C)C(c1ccc(Cl)cc1)=N[C@@H](CC(N)=O)c1nnc(C)n1-2 | 1.11 ± 0.061 | 1.2 ± 0.096
31 | CCOC1c2c(ccc3c2OCO3)-c2ccc3cc4c(cc3c2N1C)OCO4 (stereo not given) [Ethoxysanguinarine] | 0.002 | 0.108 ± 0.043
32 | C=CC(=O)N[C@H]1C=C(C)c2c(-c3cnc4ccccc4c3)c3c(N)ncnc3n2C1 | 1.19 ± 0.1 | 1.02 ± 0.13
33 | C/C(=C\c1csc(C)n1)[C@@H]1C[C@@H]2O[C@@H]2CCC[C@H](C)[C@H](O)[C@@H](C)C(=O)C(C)(C)[C@@H](O)CC(=O)O1 [Epothilone A] | 1 ± 0.091 | 1.09 ± 0.099
34 | COC1=C[C@@H]2[C@@H]3Cc4ccc(OC)c(O)c4[C@]2(CCN3C)CC1=O [Sinomenine hydrochloride] | 1.055 ± 0.0028 | 1.08 ± 0.18
35 | COC1=C[C@@H]2[C@@H]3Cc4ccc(OC)c(O)c4[C@]2(CCN3C)CC1=O | 1.08 ± 0.046 | 1.06 ± 0.071
